From the supplement of paper PMC9135407
“And” between values parts separate entries of the source, which are not always exact repeats. Identical values can stand only once. Counter-ions that a name gives are not always drawn. The campaign covered roughly 5,800 compounds. About 620 (11%) showed activity.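 The calls were made as follows: active = score above a cut-off or among the top three wells of a plate; in these data no inactive exceeds 0.85.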 Only a part is listed here, and it is no random draw.

Tested on: primary human hepatic stellate cells (donor 1)
Assay: scaled lipid accumulation score (0 = DMSO-like, 1 = nortriptyline-like); higher = stronger HSC inactivation (lipid re-accumulation), active = hit call of the paper
Conditions: 48 h
[1] = library stock concentration: 3.33 mM
[2] = library stock concentration: 10 mM
[3] = library stock concentration: 1 mM
[4] = library stock concentration: 2 mM
[5] = library stock concentration: 80 uM
[6] = library stock concentration: 400 uM

Structure (SMILES): CCCCCCCCCCCC1=C(O)C(=O)C=C(O)C1=O [Embelin]
- scaled lipid accumulation score [1]: inactive: ≤ 0
- scaled lipid accumulation score [2]: inactive: 0.153 and inactive: 0.039 and inactive: ≤ -0.001

Structure (SMILES): COc1cc(C(=O)OCCC[NH+]2CCC[NH+](CCCOC(=O)c3cc(OC)c(OC)c(OC)c3)CC2)cc(OC)c1OC.[Cl-].[Cl-] [Dilazep hydrochloride]
- scaled lipid accumulation score [2]: active: 0.951

Structure (SMILES): COc1c2ccoc2cc2oc(=O)ccc12 [Bergapten]
- scaled lipid accumulation score [1]: inactive: ≤ 0
- scaled lipid accumulation score [2]: inactive: ≤ -0.001 and inactive: 0.018

Structure (SMILES): Cc1ncc2ccccc2c1C#N [4-Cyano-3-methylisoquinoline]
- scaled lipid accumulation score [1]: inactive: ≤ 0

Structure (SMILES): NCCNS(=O)(=O)c1cccc2c(Cl)cccc12 [A3 hydrochloride]
- scaled lipid accumulation score [2]: inactive: ≤ 0

Structure (SMILES): CC(C)NCC(O)c1ccc(O)c(O)c1 (single isomer, unassigned; (-)) [(-)-Isoproterenol hydrochloride]
- scaled lipid accumulation score: inactive: ≤ 0
- scaled lipid accumulation score [2]: inactive: ≤ -0.055

Structure (SMILES): CC(C)NCC(O)c1ccc(O)c(O)c1 (single isomer, unassigned; (-)) [Isoprenaline HCl]
- scaled lipid accumulation score [1]: inactive: 0.036
- scaled lipid accumulation score [2]: inactive: ≤ 0

Structure (SMILES): CC(C)NCC(O)c1ccc(O)c(O)c1 (single isomer, unassigned; (-))
- scaled lipid accumulation score [2]: inactive: ≤ 0

Structure (SMILES): CC(C)NCC(O)c1ccc(O)c(O)c1 (single isomer, unassigned; (-)) [R(-)-Isoproterenol (+)-bitartrate]
- scaled lipid accumulation score [2]: inactive: ≤ -0.056

Structure (SMILES): CC(C)NCC(O)c1ccc(O)c(O)c1 (single isomer, unassigned; (-)) [(?)-Isoproterenol hydrochloride]
- scaled lipid accumulation score [2]: inactive: 0.01

Structure (SMILES): CC(C)NCC(O)c1ccc(O)c(O)c1 (single isomer, unassigned; (-)) [S(+)-Isoproterenol (+)-bitartrate]
- scaled lipid accumulation score [2]: inactive: ≤ -0.055

Structure (SMILES): CC(C)NCC(O)c1ccc(O)c(O)c1 (single isomer, unassigned; (-)) [Isoproterenol hydrochloride]
- scaled lipid accumulation score (library stock concentration: 8.1 mM): inactive: 0.008
- scaled lipid accumulation score [2]: inactive: ≤ 0 and inactive: ≤ -0.006

Structure (SMILES): O=C1C(O)=C([C@H]2CC[C@H](c3ccc(Cl)cc3)CC2)C(=O)c2ccccc21 [Atovaquone]
- scaled lipid accumulation score: inactive: 0.086
- scaled lipid accumulation score [2]: inactive: ≤ -0.027

Structure (SMILES): Cc1ccccc1C(OCCN(C)C)c1ccccc1 (stereo not given) [Norflex]
- scaled lipid accumulation score [2]: inactive: 0.726

Structure (SMILES): Cc1ccccc1C(OCCN(C)C)c1ccccc1 (stereo not given) [Orphenadrine Citrate]
- scaled lipid accumulation score [1]: inactive: 0.282
- scaled lipid accumulation score [2]: inactive: 0.671

Structure (SMILES): Cc1ccccc1C(OCCN(C)C)c1ccccc1 (stereo not given) [Orphenadrine citrate]
- scaled lipid accumulation score [2]: inactive: 0.402

Structure (SMILES): Cc1ccccc1C(OCCN(C)C)c1ccccc1 (stereo not given) [Orphenadrine hydrochloride]
- scaled lipid accumulation score: inactive: 0.404
- scaled lipid accumulation score [2]: inactive: 0.526

Structure (SMILES): Cc1ccccc1C(OCCN(C)C)c1ccccc1 (stereo not given) [Disipal]
- scaled lipid accumulation score [2]: inactive: 0.676

Structure (SMILES): Cc1cncc2cccc(S(=O)(=O)N3CCCN(C(=O)CN)C[C@@H]3C)c12 [Rho Kinase Inhibitor IV]
- scaled lipid accumulation score [1]: inactive: ≤ 0

Structure (SMILES): Clc1ccc2c(c1)CCc1cccnc1C2=C1CCNCC1
- scaled lipid accumulation score [2]: active: 1.52

Structure (SMILES): Cc1nc(C#Cc2ccnc(Cl)c2)c(C)n1-c1ccc(OC(F)(F)F)cc1
- scaled lipid accumulation score [1]: inactive: ≤ 0
- scaled lipid accumulation score [2]: inactive: ≤ 0

Structure (SMILES): COC(=O)C1=C(C)NC(C)=C(C(=O)OCCN(C)Cc2ccccc2)C1c1cccc([N+](=O)[O-])c1 (stereo not given) [Cardene]
- scaled lipid accumulation score [2]: inactive: 0.429

Structure (SMILES): COC(=O)C1=C(C)NC(C)=C(C(=O)OCCN(C)Cc2ccccc2)C1c1cccc([N+](=O)[O-])c1 (stereo not given) [Nicardipine HCl]
- scaled lipid accumulation score [1]: inactive: ≤ 0
- scaled lipid accumulation score [2]: inactive: 0.63

Structure (SMILES): COC(=O)C1=C(C)NC(C)=C(C(=O)OCCN(C)Cc2ccccc2)C1c1cccc([N+](=O)[O-])c1 (stereo not given) [Nicardipine hydrochloride]
- scaled lipid accumulation score: inactive: 0.253
- scaled lipid accumulation score [2]: inactive: 0.101 and inactive: 0.346

Structure (SMILES): COC(=O)C1=C(C)NC(C)=C(C(=O)OCCN(C)Cc2ccccc2)C1c1cccc([N+](=O)[O-])c1 (stereo not given)
- scaled lipid accumulation score (library stock concentration: 9.7 mM): inactive: 0.511

Structure (SMILES): OC[C@H]1O[C@@H](c2ccc(Cl)c(Cc3ccc(O[C@H]4CCOC4)cc3)c2)[C@H](O)[C@@H](O)[C@@H]1O
- scaled lipid accumulation score [1]: inactive: ≤ -0.009
- scaled lipid accumulation score [2]: inactive: 0.021

Structure (SMILES): CN1CCN(c2c(F)cc3c(=O)c(C(=O)O)cn4c3c2SCC4)CC1
- scaled lipid accumulation score [2]: inactive: ≤ 0

Structure (SMILES): CC(=O)N1CCN(C)CC1 [1-Acetyl-4-methylpiperazine hydrochloride]
- scaled lipid accumulation score [2]: inactive: 0.045

Structure (SMILES): CCCCCCC[C@H](O)/C=C/[C@@H]1[C@@H](C/C=C\CCCC(=O)O)[C@@H](O)C[C@H]1O [20-ethyl Prostaglandin F2.alpha.]
- scaled lipid accumulation score [3]: inactive: ≤ 0

Structure (SMILES): Cc1cc(Nc2cc(N3CCN(C)CC3)nc(/C=C/c3ccccc3)n2)n[nH]1
- scaled lipid accumulation score [2]: inactive: 0.603

Structure (SMILES): Oc1cc(O)c(Cl)cn1 [Gimeracil]
- scaled lipid accumulation score [1]: inactive: 0.014
- scaled lipid accumulation score [2]: inactive: 0.04

Structure (SMILES): O=C(CCC/C=C\C[C@H]1C(=O)C[C@@H](O)C1/C=C/[C@@H](O)CCc1ccccc1)NC(CO)CO (stereo not given in full) [17-phenyl trinor Prostaglandin E2 serinol amide]
- scaled lipid accumulation score [3]: inactive: ≤ 0

Structure (SMILES): O=C1Cc2c([nH]c3ccc(Br)cc23)-c2ncccc2N1 [1-Azakenpaullone]
- scaled lipid accumulation score [1]: inactive: 0.405
- scaled lipid accumulation score [2]: inactive: 0.808

Structure (SMILES): CC1(C)CCC(C)(C)c2cc(C(=O)Nc3ccc(C(=O)O)cc3)ccc21
- scaled lipid accumulation score [3]: inactive: ≤ -0.021
- scaled lipid accumulation score [2]: inactive: 0.042

Structure (SMILES): COC(=O)C1=C(C)NC(C)=C(C(=O)OCC(C)C)C1c1ccccc1[N+](=O)[O-] (stereo not given)
- scaled lipid accumulation score [2]: inactive: 0.325

Structure (SMILES): COC(=O)C1=C(C)NC(C)=C(C(=O)OCC(C)C)C1c1ccccc1[N+](=O)[O-] (stereo not given) [Nisoldipine]
- scaled lipid accumulation score: inactive: ≤ 0
- scaled lipid accumulation score [1]: inactive: ≤ 0
- scaled lipid accumulation score (library stock concentration: 5.1 mM): inactive: ≤ -0.006 and inactive: ≤ 0
- scaled lipid accumulation score [2]: inactive: 0.114

Structure (SMILES): Nc1ccccc1NC(=O)c1ccc(CNc2nccc(-c3cccnc3)n2)cc1 [Mocetinostat]
- scaled lipid accumulation score [4]: active: 0.728
- scaled lipid accumulation score [2]: active: 0.648

Structure (SMILES): Cn1cc(-c2[nH]c3cc(NC(=O)[C@H](N)C4CCCCC4)cc4c3c2C=NNC4=O)cn1
- scaled lipid accumulation score [1]: inactive: ≤ 0
- scaled lipid accumulation score [2]: inactive: 0.077

Structure (SMILES): CC[C@@H]1/C=C(\C)C[C@H](C)C[C@H](OC)[C@H]2O[C@@](O)(C(=O)C(=O)N3CCCC[C@H]3C(=O)O[C@H](/C(C)=C/[C@@H]3CC[C@@H](O)[C@H](OC)C3)[C@H](C)[C@@H](O)CC1=O)[C@H](C)C[C@@H]2OC [Ascomycin (FK-520)]
- scaled lipid accumulation score (library stock concentration: 6.3 mM): inactive: 0.038

Structure (SMILES): CC1(C)CNc2cc(NC(=O)c3cccnc3NCc3ccncc3)ccc21
- scaled lipid accumulation score [5]: inactive: 0.035
- scaled lipid accumulation score [6]: inactive: 0.008
- scaled lipid accumulation score [4]: inactive: 0.012
- scaled lipid accumulation score [2]: inactive: ≤ 0

Structure (SMILES): CC1(C)CNc2cc(NC(=O)c3cccnc3NCc3ccncc3)ccc21 [Motesanib (AMG-706) (0.4 mM)]
- scaled lipid accumulation score [6]: inactive: ≤ -0.005

Structure (SMILES): CC1(C)CNc2cc(NC(=O)c3cccnc3NCc3ccncc3)ccc21 [Motesanib (AMG-706) (2 mM)]
- scaled lipid accumulation score [4]: inactive: 0.209

Structure (SMILES): CC1(C)CNc2cc(NC(=O)c3cccnc3NCc3ccncc3)ccc21 [Motesanib Diphosphate (AMG-706)]
- scaled lipid accumulation score [1]: inactive: 0.031
- scaled lipid accumulation score [2]: inactive: ≤ 0

Structure (SMILES): CC1(C)CNc2cc(NC(=O)c3cccnc3NCc3ccncc3)ccc21 [Motesanib (AMG-706) (10 mM)]
- scaled lipid accumulation score [2]: inactive: 0.128

Structure (SMILES): CCCCCCCCCCCCCCCC(=O)NCCS(=O)(=O)O [N-Palmitoyl Taurine]
- scaled lipid accumulation score [3]: inactive: ≤ 0

Structure (SMILES): CC(=O)Nc1ccc(C(=O)O)cc1
- scaled lipid accumulation score [2]: inactive: ≤ 0

Structure (SMILES): CCCCC[C@H](O)/C=C/[C@H]1[C@H](O)CC(=O)[C@@H]1CCCCCCC(=O)O [Prostaglandin  E1]
- scaled lipid accumulation score [3]: inactive: ≤ -0.021

Structure (SMILES): CCCCC[C@H](O)/C=C/[C@H]1[C@H](O)CC(=O)[C@@H]1CCCCCCC(=O)O [Alprostadil]
- scaled lipid accumulation score: inactive: ≤ 0
- scaled lipid accumulation score [1]: inactive: ≤ 0
- scaled lipid accumulation score [2]: inactive: ≤ 0 and inactive: 0.01

Structure (SMILES): CCCCC[C@H](O)/C=C/[C@H]1[C@H](O)CC(=O)[C@@H]1CCCCCCC(=O)O [Prostaglandin E1]
- scaled lipid accumulation score [3]: inactive: ≤ 0
- scaled lipid accumulation score [2]: inactive: ≤ 0

Structure (SMILES): O=C(O)c1cccnc1C(=O)O [Quinolinic acid]
- scaled lipid accumulation score [2]: inactive: ≤ 0

Structure (SMILES): O=C(O)c1ccccc1 [Benzoic acid]
- scaled lipid accumulation score (library stock concentration: 16.4 mM): inactive: ≤ 0

Structure (SMILES): O=C(O)c1ccccc1 [Benzoic Acid]
- scaled lipid accumulation score [1]: inactive: ≤ 0
- scaled lipid accumulation score [2]: inactive: 0.005

Structure (SMILES): CN(CC[C@@H](Oc1ccc(C(F)(F)F)cc1)c1ccccc1)CC(=O)[O-].[Li+]
- scaled lipid accumulation score [2]: inactive: 0.149

Structure (SMILES): CC[C@@H]([C@H](C)O)n1ncn(-c2ccc(N3CCN(c4ccc(OC[C@@H]5CO[C@@](Cn6cncn6)(c6ccc(F)cc6F)C5)cc4)CC3)cc2)c1=O [Posaconazole]
- scaled lipid accumulation score [1]: inactive: 0.134

Structure (SMILES): CCOc1ccc(NC(C)=O)cc1 [Phenacetin]
- scaled lipid accumulation score: inactive: 0.45
- scaled lipid accumulation score [1]: inactive: ≤ 0
- scaled lipid accumulation score [2]: inactive: ≤ 0

Structure (SMILES): CC(C)[C@H](N)C(=O)OCC(CO)OCn1cnc2c(=O)[nH]c(N)nc21 (stereo not given in full) [Valganciclovir HCl]
- scaled lipid accumulation score [1]: inactive: ≤ 0
- scaled lipid accumulation score [2]: inactive: 0.028

Structure (SMILES): O=C(c1ccc(OCCCc2c[nH]cn2)cc1)C1CC1 [Ciproxifan]
- scaled lipid accumulation score [1]: inactive: ≤ 0
- scaled lipid accumulation score [2]: inactive: 0.186

Structure (SMILES): O=C(c1ccc(OCCCc2c[nH]cn2)cc1)C1CC1 [Ciproxifan hydrochloride]
- scaled lipid accumulation score [2]: inactive: 0.432

Structure (SMILES): CN1CCN(c2nc(C3=C(c4c[nH]c5ccccc45)C(=O)NC3=O)c3ccccc3n2)CC1 [Sotrastaurin]
- scaled lipid accumulation score [5]: inactive: 0.028
- scaled lipid accumulation score [6]: inactive: 0.007
- scaled lipid accumulation score [4]: inactive: ≤ 0
- scaled lipid accumulation score [1]: inactive: 0.035
- scaled lipid accumulation score [2]: inactive: ≤ 0 and inactive: 0.476
